The values that follow come from PubChem BioAssay AID1508623 (National Center for Advancing Translational Sciences (NCATS), 2021).

Screen size: about 48,000 compounds; about 450 (0.94%) were called active. Roughly 19% stayed inconclusive and do not appear here. Calls come from the whole dose curve; as a rule, active = well fitted inhibition curve with a large enough effect; inconclusive = small, poorly fitted or top-dose-only effect; inactive = no such curve, though single readings can be large or run the other way. The list shows a part of the results.
Potency is the fitted concentration of half-maximal effect.

The assay in a line: Primary qHTS for Identification of Small Molecule Inhibitors of Huntingtin Promoter Activity. Note: nearly all actives have a fitted effect of over 50% in size. The settings on record: HEK293 HTT promoter firefly luciferase reporter (activity 0% = vehicle and -100% = no light), 24 h; series mostly up to 57.5 µM; activity change, negative = inhibition: at the top concentration. Summed up:
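HEK293 luciferase promoter-reporter cells (2,500/well) plated 24 h, then compounds added at up to 57.5 uM final for 24 h at 37 °C. Firefly luminescence by Dual-Glo, normalized to vehicle (0%) and zero RLU (-100%).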
Turning to `COc1ccc2cc3cc(C(=O)N4CCN(c5ccc(C(C)=O)cc5)CC4)sc3nc2c1Cl`, the “activity change, negative = inhibition” value was inactive: -4.64%.

Turning to `O=S(=O)(NCc1nc2cccnc2n1Cc1ccc(F)cc1)c1ccc2c(c1)CCCC2`, the “activity change, negative = inhibition” value was inactive: -17.2%.

For the molecule `CCCC(=O)O[C@]1(C(=O)CC)CC[C@H]2[C@@H]3CCC4=CC(=O)CC[C@]4(C)[C@H]3[C@@H](O)C[C@@]21C`, the “activity change, negative = inhibition” value is inactive: -9.39%.

`CCOC(=O)c1ccc(NC(=O)c2c(NCc3cccs3)sc3c2CCCCC3)cc1`: the “activity change, negative = inhibition” value is inactive: -28.2%.

`Cc1cc(NC(=O)Cn2c(=O)nc(-c3ccccc3F)c3cc(Cl)ccc32)ccc1Br`: the “activity change, negative = inhibition” value was inactive: -13%.

`CC1=C(C(=O)Nc2ccccc2C)C(c2ccncc2)n2nc(SCc3ccccc3)nc2N1` (centres undefined): the “activity change, negative = inhibition” value is inactive: -7.26%.

Turning to `CCN1CCN(c2cc(C)c3cc(NC(=O)c4cccc(C(F)(F)F)c4)ccc3n2)CC1`, the “activity change, negative = inhibition” value was inactive: -4.62%.

Take `COc1cn(CC(=O)Nc2ccc(F)cc2)c(CN2CCCCC2)cc1=O`: the “activity change, negative = inhibition” value was inactive: -6.26%.

Regarding `COc1cccc(CSc2nc3n(n2)C(c2cccs2)C(C(=O)Nc2ccccc2C)=C(C)N3)c1` (centres undefined), the “activity change, negative = inhibition” value was inactive: 7.45%.

Regarding `CCOC(=O)c1c(N)n(-c2ccc(Cl)c(Cl)c2)c2nc3ccccc3nc12`, the “activity change, negative = inhibition” value was inactive: 2.42%.

`Cc1cccc(Cn2c(CN3CCC(C(=O)NCc4cccnc4)CC3)cc3ccccc32)c1`: the “activity change, negative = inhibition” value was inactive: 4.64%.

Take `Cc1ccc(NC(=O)Cn2c(=O)n(-c3ccc(Cl)c(Cl)c3)c(=O)c3c(C)c(C)sc32)c(C)c1`: the “activity change, negative = inhibition” value is inactive: -11.2%.

With `COc1cc(OC)c(NC(=O)CCCn2nc(C)c3sc4ccccc4c3c2=O)cc1Cl`, the “activity change, negative = inhibition” value was inactive: -7.11%.

With `COC(=O)c1ccc(Cl)cc1NC(=O)N1CCCn2nc(C)cc21`, the “activity change, negative = inhibition” value is inactive: -3.22%.

On to `COc1nc(-c2ccc(C)cc2)ccc1-c1noc(-c2ccccc2Br)n1`, for which the “activity change, negative = inhibition” value was inactive: -4.71%.

As to `CCCCOC(=O)CSc1nnc(-c2ccccc2)o1`, the “activity change, negative = inhibition” value is inactive: -5.24%.

As for `O=c1c2cccnc2n(Cc2ccccc2F)c(=O)n1Cc1ccccc1Cl`, the “activity change, negative = inhibition” value was inactive: -5.85%.

As to `Cc1ccc(C)c(N2CCN(C(=O)CN3CCSc4ccc(S(=O)(=O)N(C)C)cc43)CC2)c1`, the “activity change, negative = inhibition” value is inactive: -29.5%.

In the case of `CC(=O)Nc1nonc1-c1nnc(SCC(=O)Nc2cc(C)cc(C)c2)n1C`, the “activity change, negative = inhibition” value was inactive: -9.62%.

Regarding `C[C@]12CC[C@@H]3c4ccc(O)cc4CC[C@H]3[C@@H]1CCC2=O`, the “activity change, negative = inhibition” value is inactive: -0.13%.

Consider `Cc1oc2ncn(CC(C)C)c(=O)c2c1C(=O)N1CCN(c2ccc(F)cc2)CC1`, for which the “activity change, negative = inhibition” value is inactive: 0%.

For the molecule `COc1ccccc1CNc1ccc(-c2nc(C)no2)cc1[N+](=O)[O-]`, the “activity change, negative = inhibition” value was inactive: -12.9%.

Regarding `COc1ccc(-c2oc3ncn4nc(-c5ccccc5Br)nc4c3c2-c2ccc(OC)cc2)cc1`, the activity change, negative = inhibition is inactive: -14.6% [at 11.5 µM].

In the case of `COc1cccc(NC(=O)c2oc3ccccc3c2NC(=O)c2ccc(C(F)(F)F)cc2)c1`, the “activity change, negative = inhibition” value was inactive: 2.05%.

As to `O=C(CN1CCCN(Cc2ccc(Cl)cc2)S1(=O)=O)Nc1ccccc1F`, the “activity change, negative = inhibition” value is inactive: 3.19%.

Regarding `COc1cccc2c1Oc1ncccc1N(C(=O)CCC(=O)NCc1ccc(N(C)C)cc1)C2`, the “activity change, negative = inhibition” value is inactive: -7.19%.

As for `COc1ccc(-n2c(=O)c3c4c(sc3n(Cc3ccccc3)c2=O)CN(C(C)=O)CC4)cc1OC`, the “activity change, negative = inhibition” value is inactive: -12%.

For the molecule `COc1ccccc1NC(=O)c1ccc2c(Cl)c3c(nc2c1)CCCC3`, the “activity change, negative = inhibition” value is inactive: 2.62%.

As to `O=C(c1cc(=O)c2cc(Cl)ccc2o1)N(Cc1ccccc1)C1CCS(=O)(=O)C1` (centres undefined), the “activity change, negative = inhibition” value is inactive: 20%.

As to `Cc1nc(N2CCCC2)c2c(C(=O)Nc3cccc(Cl)c3C)c(C)oc2n1`, the “activity change, negative = inhibition” value is inactive: -12.3%.

`Cc1ccc(-n2ncc3c(NCCCc4ccccc4)ncnc32)cc1`: the “activity change, negative = inhibition” value is inactive: 5.2%.

For `COc1ccc(NC(=O)CSc2nc3nc(C)c(Cc4ccc(C)cc4)c(C)n3n2)cc1OC`, the “activity change, negative = inhibition” value was inactive: -25.1%.

Take `COc1ccc(Cl)cc1-n1nnc(-c2nc(-c3ccc4c(c3)OCO4)no2)c1C`: the “activity change, negative = inhibition” value is inactive: 3.37%.

On to `CCCNC(=O)C1CCC(Cn2c(=O)c3sccc3n(Cc3ccccc3C)c2=O)CC1` (centres undefined), for which the “activity change, negative = inhibition” value is inactive: 9.1%.

On to `COc1cc2[nH]c(=O)n(Cc3ccc(C(=O)NCc4ccccc4)cc3)c(=O)c2cc1OC`, for which the “activity change, negative = inhibition” value was inactive: -13.1%.

On to `Cc1cccc(C)c1NC(=O)c1csc2c1CCCC2`, for which the “activity change, negative = inhibition” value is inactive: -10.4%.

On to `COc1ccccc1NC(=O)C(=O)c1cc(C)n(-c2ccccc2F)c1C`, for which the “activity change, negative = inhibition” value was inactive: -28.8%.

Turning to `Cc1ccc(NC(=O)Nc2nnc(SCC(=O)Nc3ccc(F)cc3F)s2)cc1`, the “activity change, negative = inhibition” value was inactive: -18.6%.

As for `O=C(NCCCc1nc2ccccc2n1Cc1cccc(Cl)c1)c1ccco1`, the “activity change, negative = inhibition” value was inactive: -21%.

Regarding `Cc1nnc(C)n1-c1ccc(C(=O)Nc2cccc(Br)c2)cc1`, the activity change, negative = inhibition was inactive: -25.2% [at 11.5 µM].

In the case of `COCCCNC(=O)NC(CCC(C)C)c1c(-n2cccc2)sc2c1CCN(C)C2` (centres undefined), the “activity change, negative = inhibition” value was inactive: -17%.

As for `Cc1c(Cl)cccc1NC(=O)CCCn1nc(C)c2sc3ccccc3c2c1=O`, the “activity change, negative = inhibition” value is inactive: -5.39%.

For the molecule `CCC1CCCCN1S(=O)(=O)c1ccc(NC(=O)c2cc(=O)c3c(C)cc(C)cc3o2)cc1` (centres undefined), the “activity change, negative = inhibition” value is inactive: 4.24%.

`Cc1cccc(Cn2cc3c(=O)n(CC(=O)Nc4c(C)cccc4C)nc-3c3cc(F)ccc32)c1`: the “activity change, negative = inhibition” value is inactive: 5.13%.

Take `CC(C)Sc1nc2sc3c(c2c(=O)n1Cc1ccccc1)CCCC3`: the “activity change, negative = inhibition” value is inactive: 5.61%.

Turning to `CCCCCCCCc1ccc(CCC(N)(CO)CO)cc1`, the “activity change, negative = inhibition” value is inactive: -10.7%.

For `CC1(C)CC(=O)c2cc(-c3nc(-c4ccccc4)cs3)c(=O)[nH]c2C1`, the “activity change, negative = inhibition” value was inactive: 1.46%.

Take `Cc1ccc(NC(=O)C2CCN(S(=O)(=O)c3c(C)noc3C)CC2)cc1`: the “activity change, negative = inhibition” value was inactive: -11.9%.

Take `O=C(NCCN1CCN(c2ccccc2)CC1)Nc1cccc(Br)c1`: the “activity change, negative = inhibition” value was inactive: -26.8%.

As for `COc1ccc(Nc2nc(-c3cccc(Cl)c3)c3c(n2)-c2ccccc2OC3)cc1`, the “activity change, negative = inhibition” value is inactive: -30.7%.

`CCOc1ccc(NC(=O)CSc2nc3ccsc3c(=O)n2C(C)CC)cc1` (centres undefined): the “activity change, negative = inhibition” value was inactive: -8.45%.

For `CCOc1ccc(CCNC(=O)CCc2c(C)nc3c(c(C)nn3-c3ccc(C)c(C)c3)c2C)cc1`, the “activity change, negative = inhibition” value was inactive: -0.863%.

For `Cc1cccc2c1-c1sc(C(=O)N3CCN(c4ccccc4)CC3)cc1CO2`, the “activity change, negative = inhibition” value is inactive: -0.782%.

`COc1ccc(-c2noc(N3CCC(C(=O)N4CCN(c5ccccc5OC)CC4)CC3)n2)cc1`: the Potency is active: 12.6 µM.

On to `CCOC(=O)C=C[C@H](C[C@@H]1CCNC1=O)NC(=O)[C@@H](CC(=O)[C@@H](NC(=O)c1cc(C)on1)C(C)C)Cc1ccc(F)cc1`, for which the “activity change, negative = inhibition” value is inactive: 9.46%.

As for `CCCCNS(=O)(=O)c1ccc2nc(-c3cccnc3)cc(C(=O)NCCCOC(C)C)c2c1`, the “activity change, negative = inhibition” value is inactive: 20.9%.

With `CCOc1cccc(Nc2nn(-c3ccc(OC(F)(F)F)cc3)nc2C(C)=O)c1`, the “activity change, negative = inhibition” value was inactive: -0.236%.

Consider `CCOC(=O)c1cnc2c(C)c(Cl)ccc2c1NCCc1ccc(OC)c(OC)c1`, for which the “activity change, negative = inhibition” value was inactive: -30.6%.

On to `Cc1ccc(N(CC(=O)NCCc2ccccc2C)S(=O)(=O)N(C)C)cc1`, for which the “activity change, negative = inhibition” value was inactive: -11.9%.
